# Several values for one entry are separate records, joined by “and”; a condition that tells them apart may be missing. Equal entries are not always repeated. About 5,800 (2.1%) of roughly 270,000 compounds were called active. This list was built around the results that the source calls inconclusive (neither active nor inactive); the mix of calls is not that of the screen. Calls come from the whole dose curve; as a rule, active = well fitted inhibition curve with a large enough effect; inconclusive = small, poorly fitted or top-dose-only effect; inactive = flat fitted curve, though single readings scatter. Potencies of inconclusive entries are doubtful fits and often do not repeat.
# Molecular target: Microtubule-associated protein tau (Homo sapiens) (UniProt P10636)
# Test: qHTS for Inhibitors of Tau Fibril Formation, Thioflavin T Binding; note: nearly all actives have a fitted effect of over 55% in size
# Conditions: recombinant tau K18 P301L, heparin-induced fibrillization, ThT fluorescence; series mostly up to 57.4 µM; activity, negative = inhibition: at the top concentration
# How it was run: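 Using a mix of unlabeled (15 uM) and Alexa 594-labeled (0.24 uM) tau K18 P301L, heparin-triggered fibrillization over 6 hr at 37 C was scored by ThT fluorescence.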
# % is set by controls: 0 for no effect and ±100 for the full control effect; potency is the fitted concentration of half-maximal effect; tags give direction and shape of the fitted curve.
# UniProt P10636, sequence (P10636 whole entry, looked up): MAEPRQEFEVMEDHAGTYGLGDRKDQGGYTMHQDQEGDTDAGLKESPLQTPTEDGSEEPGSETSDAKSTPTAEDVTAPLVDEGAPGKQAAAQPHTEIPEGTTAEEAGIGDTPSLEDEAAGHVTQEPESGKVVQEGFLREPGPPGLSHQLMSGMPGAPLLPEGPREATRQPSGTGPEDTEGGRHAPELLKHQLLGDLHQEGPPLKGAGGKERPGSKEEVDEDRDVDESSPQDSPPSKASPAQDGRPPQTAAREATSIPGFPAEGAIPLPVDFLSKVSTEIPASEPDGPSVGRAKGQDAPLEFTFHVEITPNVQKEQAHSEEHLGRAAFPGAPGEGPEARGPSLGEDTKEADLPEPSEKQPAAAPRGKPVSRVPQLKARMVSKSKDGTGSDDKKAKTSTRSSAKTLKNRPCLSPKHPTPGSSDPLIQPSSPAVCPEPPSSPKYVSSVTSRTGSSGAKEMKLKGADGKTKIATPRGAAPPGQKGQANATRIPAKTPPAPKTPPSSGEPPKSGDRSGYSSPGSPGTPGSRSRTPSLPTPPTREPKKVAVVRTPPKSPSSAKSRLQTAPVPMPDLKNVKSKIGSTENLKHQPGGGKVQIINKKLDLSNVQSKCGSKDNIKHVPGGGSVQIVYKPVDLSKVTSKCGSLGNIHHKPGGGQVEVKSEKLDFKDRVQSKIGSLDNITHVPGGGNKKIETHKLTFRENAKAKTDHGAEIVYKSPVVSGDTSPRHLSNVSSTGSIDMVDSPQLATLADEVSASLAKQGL
SMILES,Potency,"activity, negative = inhibition"
CCOc1ccc2nc3cc(N)ccc3c(N)c2c1,active: 7.08 µM,
CC1CCN(c2nn3c(=O)c(C(=O)NCCc4ccccc4)cnc3s2)CC1,,inactive: -6.41%
Cc1c(-c2ccccc2)sc(N)c1C(=O)N1CCOCC1,,inactive: -17.7%
O=c1c(O)c(-c2ccc(O)c(O)c2)oc2ccccc12,active: 14.1 µM,
CC(=O)c1cccc(N2Cc3ccccc3C2=NC(=O)CCl)c1,"inconclusive: 15.8 µM [inhibitor, single point]",
N#Cc1nc(-c2ccc(OCc3ccccc3)cc2)oc1NCCCn1ccnc1,"inconclusive: 14.1 µM [inhibitor, partial curve]",
FC(F)(F)c1cc(-c2cccs2)nc2nc(N3CCOCC3)sc12,,inactive: -6.06%
O=C(CN1C(=O)COc2ccc(S(=O)(=O)N3CCCCCC3)cc21)Nc1cccc(Cl)c1,,inactive: -2.29%
NNC(=S)Nc1ccc(Cl)cc1,"inconclusive: 10 µM [inhibitor, partial curve]",
O=C(CCNC(=O)c1ccco1)Nc1ccc(SC(F)F)cc1,"inconclusive: 0.794 µM [inhibitor, partial curve]",
COc1ccccc1/C=C/C=N/NC(=O)c1ccc2nc[nH]c2c1,"inconclusive: 4.47 µM [inhibitor, full curve]",
COc1ccccc1OCCNC(=O)c1cccs1,,inactive: -3.02%
Cc1ccc(CCNC(=O)C2CCCN(S(=O)(=O)c3c(C)noc3/C=C/N(C)C)C2)cc1 (configuration not stated),"inconclusive: 20 µM [inhibitor, partial curve]",
CCN(CC)CCNc1ccc(CO)c2sc3ccccc3c(=O)c12,"inconclusive: 31.6 µM [inhibitor, partial curve] and inconclusive: 25.1 µM [inhibitor, partial curve]",
CC1Cn2c(C(=O)NCCc3ccc(Cl)cc3)cc3cccc(c32)S1 (configuration not stated),,inactive: -5.17%
c1ccc2c(Nc3nnc(-c4ccncc4)s3)cccc2c1,"inconclusive: 20 µM [inhibitor, partial curve]",
COc1cc(/C=N/NC(=O)c2ccccc2)ccc1OS(=O)(=O)c1ccccc1,,inactive: -1.52%
CCCCCCN(C(=O)CCCCCN1C(=O)NC(c2ccc(-c3ccccc3)cc2)C(C(=O)OCc2ccccc2)=C1C)C(C(=O)NCCCC)c1ccccn1 (configuration not stated),"inconclusive: 28.2 µM [inhibitor, partial curve]",
Cn1c(-c2ccccc2)c(/C=N/NC(=O)c2cccnc2)c2ccccc21,,inactive: -16.2%
COc1nc2ccccc2nc1CCC(=O)O,,inactive: 11.8%
CC(C)CC1OCCC=CC1C (configuration not stated),,inactive: -7.5% [at 11.5 µM]
N#Cc1c(N)sc(=S)c2c1CCCCC2,active: 12.6 µM,

# — PubChem BioAssay AID1460 (National Center for Advancing Translational Sciences (NCATS), 2008)
